# Test results as given in the supplement of paper PMC11876631.
# Positions count from the first letter of the chain named. Names and notes keep the numbering of the source. ± gives the standard deviation of the averaged measurements. Laboratory Escherichia coli strains with one amino-acid change in an essential protein, pooled on minimal glucose agar with carbenicillin or gentamicin at twice the control MIC (plus kanamycin and chloramphenicol for the plasmids), 48 h. Fold change of barcode share against drug-free plates; higher = less susceptible. Active = above 20 in both replicates (the paper's putatively resistant). '<' = one read or none on drug, '>' = one read or none on a drug-free plate. Shares are relative, so most strains fall below 1 when a few take over. Listed are strains with at least 15 reads on both drug-free plates, and hits; most hits rest on fewer reference reads. Replicate rank correlation about 0.5. Edits are read from barcodes.
# B1: hisG M265W (protein)
# chain: MTDNTRLRIAMQKSGRLSDDSRELLARCGIKINLHTQRLIAMAENMPIDILRVRDDDIPGLVMDGVVDLGIIGENVLEEELLNRRAQGEDPRYFTLRRLDFGGCRLSLATPVDEAWDGPLSLNGKRIATSYPHLLKRYLDQKGISFKSCLLNGSVEVAPRAGLADAICDLVSTGATLEANGLREVEVIYRSKACLIQRDGEMEESKQQLIDKLLTRIQGVIQARESKYIMMHAPTERLDEVIALLPGAERPTILPLAGDQQRVAWHMVSSETLFWETMEKLKALGASSILVLPIEKMME
# B2: hisG M265P (protein)
# chain: B1 chain with W265P
# B3: hisG I9W (protein)
# chain: B1 chain with I9W, W265M
# B4: hisG M11A (protein)
# chain: B1 chain with M11A, W265M
# B5: hisG M11W (protein)
# chain: B1 chain with M11W, W265M
# B6: hisG M11Q (protein)
# chain: B1 chain with M11Q, W265M
# B7: hisG L134A (protein)
# chain: B1 chain with L134A, W265M
# B8: hisH V4A (protein)
# chain: MNVAILDTGCANLNSVKSAIARHGYEPKVSRDPDVVLLADKLFLPGVGTAQAAMDQVRERELFDLIKACTQPVLGICLGMQLLGRRSEESNGVDLLGIIDEDVPKMTDFGLPLPHMGWNRVYPQAGNRLFQGIEDGAYFYFVHSYAMPVNPWTIAQCNYGEPFTAAVQKDNFYGVQFHPERSGAAGAKLLKNFLEM
# B9: hisH V4Q (protein)
# chain: B8 chain with A4Q
# B10: hisH V4D (protein)
# chain: B8 chain with A4D
# B11: hisH V4P (protein)
# chain: B8 chain with A4P
# B12: hisH I5A (protein)
# chain: B8 chain with A4V, I5A
# B13: hisH I5W (protein)
# chain: B8 chain with A4V, I5W
# B14: hisH I5Q (protein)
# chain: B8 chain with A4V, I5Q
# B15: hisH L6A (protein)
# chain: B8 chain with A4V, L6A
# B16: hisH L6W (protein)
# chain: B8 chain with A4V, L6W
# B17: hisH L6Q (protein)
# chain: B8 chain with A4V, L6Q
# B18: hisH L6P (protein)
# chain: B8 chain with A4V, L6P
# Molecular target: Escherichia coli (laboratory strain)
# Test: barcode share on antibiotic plates over drug-free plates; higher = less susceptible
# Procedure: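 A pool of E. coli strains, each edited to carry one amino-acid change in an essential protein, was grown for 48 h on minimal glucose agar with or without antibiotic; strain barcodes were sequenced; mean of two replicates.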
# [1] = antibiotic: carbenicillin, 2× MIC (3.1 µg/mL)
# [2] = antibiotic: gentamicin, 2× MIC (MIC 0.45 µg/mL)
Protein,fold change of barcode share [1],fold change of barcode share [2]
B1,0.793 ± 0.52,< 0.014
B2,0.673 ± 0.077,< 0.0219
B3,0.393 ± 0.084,
B4,0.989 ± 0.11,< 0.0157
B5,1.19 ± 0.6,< 0.0117
B6,0.632 ± 0.16,< 0.00614
B7,0.532 ± 0.33,< 0.018
B8,0.749 ± 0.067,< 0.00392
B9,0.826 ± 0.14,0.013 ± 0.0097
B10,99.5 [active],
B11,> 178 [active],
B12,> 52.5 [active],
B13,> 42.3 [active],
B14,> 27.4 [active],
B15,0.601 ± 0.17,0.00896 ± 0.0012
B16,1.16 ± 0.17,0.00974 ± 0.0026
B17,6.45 ± 3.5,0.0198 ± 0.0026
B18,22.7 ± 9.8,< 0.0156
